{"source": "the supplement of paper PMC10126150", "note": "Sequences with one replicate were seen in a single cluster, so their values are uncertain.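 Note: ATP exposure 15 min at 22 °C before imaging.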", "data": [{"test_system": "ATP", "assay": "switch fluorescence ratio, 500 uM ATP over buffer (Cy3 cluster intensity, sum of 5 cycles each) (fold (ratio)); higher = stronger signal-on switching upon ATP binding; sequences stand for … in TCGTCGGCAGCGTCAGATGTGTATAAGAGACAGTTTTTTTTTTTTTTTTTTTTTTTTT…TC", "details": "aptamer strand: ATP DNA aptamer (quencher-CACCTGGGGGAGTATTGCGGAGGAAGG + anchor), 100 nM annealed; ATP concentration: 500 uM; one replicate", "outline": "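Switching-strand clusters labelled with Cy3 on a modified Illumina MiSeq flow-cell were annealed to 100 nM quencher-labelled ATP aptamer, imaged in selection buffer, and re-imaged after 15 min with 500 uM ATP at 22 °C. This was done over five cycles with NaOH stripping and re-annealing in between. The fluorescence ratio is summed target-cycle over summed buffer-cycle Cy3 intensity per cluster, averaged per switch-domain sequence, excluding clusters outside 100-1000 RFU.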", "values": [{"sequence": "TATCACACA", "switch fluorescence ratio": 1.07}, {"sequence": "TATCAGAACT", "switch fluorescence ratio": 1.01}, {"sequence": "TATCAGCAAT", "switch fluorescence ratio": 2.73}, {"sequence": "TATCAGCATT", "switch fluorescence ratio": 1.06}, {"sequence": "TATCAGGGA", "switch fluorescence ratio": 1.02}, {"sequence": "TATCAGGTCA", "switch fluorescence ratio": 0.972}, {"sequence": "TATCATGAGC", "switch fluorescence ratio": 0.923}, {"sequence": "TATCATGGG", "switch fluorescence ratio": 0.973}, {"sequence": "TATCCAACCC", "switch fluorescence ratio": 1.11}, {"sequence": "TATCCAACT", "switch fluorescence ratio": 0.977}, {"sequence": "TATCCACGGC", "switch fluorescence ratio": 1.06}, {"sequence": "TATCCATATT", "switch fluorescence ratio": 1.01}, {"sequence": "TATCCCAGGT", "switch fluorescence ratio": 1.21}, {"sequence": "TATCCCTGCA", "switch fluorescence ratio": 1.12}, {"sequence": "TATCCCTGCG", "switch fluorescence ratio": 1.03}, {"sequence": "TATCCGAACT", "switch fluorescence ratio": 1}, {"sequence": "TATCCGTGTA", "switch fluorescence ratio": 1.04}, {"sequence": "TATCCTGGAA", "switch fluorescence ratio": 1.05}, {"sequence": "TATCCTTCAA", "switch fluorescence ratio": 1.04}, {"sequence": "TATCGAAAGC", "switch fluorescence ratio": 0.964}, {"sequence": "TATCGAACGG", "switch fluorescence ratio": 1.02}, {"sequence": "TATCGAATAT", "switch fluorescence ratio": 0.991}, {"sequence": "TATCGAGGCC", "switch fluorescence ratio": 1.07}, {"sequence": "TATCGAGGCG", "switch fluorescence ratio": 1.06}, {"sequence": "TATCGCCCGA", "switch fluorescence ratio": 1.03}, {"sequence": "TATCGCCCTG", "switch fluorescence ratio": 1.05}, {"sequence": "TATCGCTCCG", "switch fluorescence ratio": 1.07}, {"sequence": "TATCGCTCTA", "switch fluorescence ratio": 0.952}, {"sequence": "TATCGGAATT", "switch fluorescence ratio": 1.01}, {"sequence": "TATCGGCCTT", "switch fluorescence ratio": 1.06}, {"sequence": "TATCGGCGTC", "switch fluorescence ratio": 1.04}, {"sequence": "TATCGGCTCT", "switch fluorescence ratio": 0.946}, {"sequence": "TATCGGTGGG", "switch fluorescence ratio": 1.01}, {"sequence": "TATCGTAAAC", "switch fluorescence ratio": 1.07}, {"sequence": "TATCGTACCC", "switch fluorescence ratio": 1.13}, {"sequence": "TATCGTAGTT", "switch fluorescence ratio": 1.01}, {"sequence": "TATCGTTACT", "switch fluorescence ratio": 1.07}, {"sequence": "TATCGTTAT", "switch fluorescence ratio": 1.01}, {"sequence": "TATCGTTATC", "switch fluorescence ratio": 0.989}, {"sequence": "TATCTACATA", "switch fluorescence ratio": 1.08}, {"sequence": "TATCTATTAG", "switch fluorescence ratio": 1.02}, {"sequence": "TATCTCAGGC", "switch fluorescence ratio": 1.03}, {"sequence": "TATCTCGTAA", "switch fluorescence ratio": 1.09}, {"sequence": "TATCTGAAGC", "switch fluorescence ratio": 0.954}, {"sequence": "TATCTGGATC", "switch fluorescence ratio": 0.98}, {"sequence": "TATCTGGGAG", "switch fluorescence ratio": 1.02}, {"sequence": "TATCTGTGCA", "switch fluorescence ratio": 0.993}, {"sequence": "TATCTTACGT", "switch fluorescence ratio": 1}, {"sequence": "TATCTTATGC", "switch fluorescence ratio": 0.996}, {"sequence": "TATGAAATCC", "switch fluorescence ratio": 1}, {"sequence": "TATGAAGATT", "switch fluorescence ratio": 1.01}, {"sequence": "TATGACTAAA", "switch fluorescence ratio": 1.06}, {"sequence": "TATGACTCGC", "switch fluorescence ratio": 1.08}, {"sequence": "TATGAGTTGA", "switch fluorescence ratio": 1.02}, {"sequence": "TATGAGTTTC", "switch fluorescence ratio": 1.01}, {"sequence": "TATGATACCT", "switch fluorescence ratio": 1.29}, {"sequence": "TATGATCGTG", "switch fluorescence ratio": 1}, {"sequence": "TATGATGCAG", "switch fluorescence ratio": 0.99}, {"sequence": "TATGATTGGT", "switch fluorescence ratio": 1.01}, {"sequence": "TATGCAGTGG", "switch fluorescence ratio": 1.04}, {"sequence": "TATGCCAAGC", "switch fluorescence ratio": 0.969}, {"sequence": "TATGCGATGC", "switch fluorescence ratio": 2.01}, {"sequence": "TATGCTATTG", "switch fluorescence ratio": 1.02}, {"sequence": "TATGCTCCAA", "switch fluorescence ratio": 1.02}, {"sequence": "TATGGATAAG", "switch fluorescence ratio": 1.02}, {"sequence": "TATGGCAGTG", "switch fluorescence ratio": 1.02}, {"sequence": "TATGGCCGTA", "switch fluorescence ratio": 0.971}, {"sequence": "TATGGCGTGA", "switch fluorescence ratio": 1.01}, {"sequence": "TATGGCGTTG", "switch fluorescence ratio": 0.972}, {"sequence": "TATGGCTCCG", "switch fluorescence ratio": 1.05}, {"sequence": "TATGGCTCTC", "switch fluorescence ratio": 0.971}, {"sequence": "TATGGCTGCA", "switch fluorescence ratio": 1.02}, {"sequence": "TATGGGAATT", "switch fluorescence ratio": 0.976}, {"sequence": "TATGGGAGCG", "switch fluorescence ratio": 0.977}, {"sequence": "TATGGTATTA", "switch fluorescence ratio": 0.955}, {"sequence": "TATGGTGCGG", "switch fluorescence ratio": 0.996}, {"sequence": "TATGGTGCTC", "switch fluorescence ratio": 1.02}, {"sequence": "TATGGTTAAC", "switch fluorescence ratio": 1.04}, {"sequence": "TATGTAATGC", "switch fluorescence ratio": 1.25}, {"sequence": "TATGTAGCCA", "switch fluorescence ratio": 1}, {"sequence": "TATGTAGGT", "switch fluorescence ratio": 1.02}, {"sequence": "TATGTCCAAG", "switch fluorescence ratio": 0.94}, {"sequence": "TATGTCGACG", "switch fluorescence ratio": 1.02}, {"sequence": "TATGTGGGAG", "switch fluorescence ratio": 1.04}, {"sequence": "TATGTTAAAA", "switch fluorescence ratio": 1.14}, {"sequence": "TATGTTGGAG", "switch fluorescence ratio": 0.976}, {"sequence": "TATTAAGGGG", "switch fluorescence ratio": 1.03}, {"sequence": "TATTAAGTAA", "switch fluorescence ratio": 1.02}, {"sequence": "TATTACACT", "switch fluorescence ratio": 1.03}, {"sequence": "TATTACTTAC", "switch fluorescence ratio": 1.39}, {"sequence": "TATTAGCAGT", "switch fluorescence ratio": 0.95}, {"sequence": "TATTAGCCGC", "switch fluorescence ratio": 1.12}, {"sequence": "TATTAGGCTC", "switch fluorescence ratio": 0.992}, {"sequence": "TATTAGGGCG", "switch fluorescence ratio": 0.991}, {"sequence": "TATTAGTGCA", "switch fluorescence ratio": 1.03}, {"sequence": "TATTATAAGC", "switch fluorescence ratio": 1.01}, {"sequence": "TATTCATCTT", "switch fluorescence ratio": 0.992}, {"sequence": "TATTCCCTAA", "switch fluorescence ratio": 1.06}, {"sequence": "TATTCCTGTA", "switch fluorescence ratio": 0.994}, {"sequence": "TATTGAACCG", "switch fluorescence ratio": 0.998}, {"sequence": "TATTGAGCGC", "switch fluorescence ratio": 1.03}, {"sequence": "TATTGAGGTT", "switch fluorescence ratio": 1.06}, {"sequence": "TATTGATTCC", "switch fluorescence ratio": 1.05}, {"sequence": "TATTGCAA", "switch fluorescence ratio": 0.993}, {"sequence": "TATTGCTACA", "switch fluorescence ratio": 1.03}, {"sequence": "TATTGGACAC", "switch fluorescence ratio": 1.04}, {"sequence": "TATTGGATAA", "switch fluorescence ratio": 0.948}, {"sequence": "TATTGGCCGG", "switch fluorescence ratio": 1.01}, {"sequence": "TATTTAAGCC", "switch fluorescence ratio": 1.02}, {"sequence": "TATTTACTCT", "switch fluorescence ratio": 0.974}, {"sequence": "TATTTAGTCC", "switch fluorescence ratio": 1.02}, {"sequence": "TATTTCAGTT", "switch fluorescence ratio": 0.957}, {"sequence": "TATTTCCCGA", "switch fluorescence ratio": 1.03}, {"sequence": "TATTTCGCAT", "switch fluorescence ratio": 1.38}, {"sequence": "TATTTCTCCT", "switch fluorescence ratio": 1.01}, {"sequence": "TATTTGACGT", "switch fluorescence ratio": 0.988}, {"sequence": "TATTTGGAC", "switch fluorescence ratio": 1.02}, {"sequence": "TATTTGTGAA", "switch fluorescence ratio": 1}, {"sequence": "TATTTTAGCC", "switch fluorescence ratio": 1.18}, {"sequence": "TATTTTCGTT", "switch fluorescence ratio": 1}, {"sequence": "TATTTTGTAC", "switch fluorescence ratio": 1.07}, {"sequence": "TATTTTTGAT", "switch fluorescence ratio": 0.963}, {"sequence": "TATTTTTTAA", "switch fluorescence ratio": 0.958}, {"sequence": "TCAAAACGAG", "switch fluorescence ratio": 1.03}, {"sequence": "TCAAAACTCG", "switch fluorescence ratio": 1.02}, {"sequence": "TCAAAATGGG", "switch fluorescence ratio": 1.05}, {"sequence": "TCAAACAAGG", "switch fluorescence ratio": 1.03}, {"sequence": "TCAAACATAT", "switch fluorescence ratio": 1}, {"sequence": "TCAAACCCGG", "switch fluorescence ratio": 1.04}, {"sequence": "TCAAAGCGGC", "switch fluorescence ratio": 1.07}, {"sequence": "TCAAATAGTA", "switch fluorescence ratio": 0.997}, {"sequence": "TCAACACTTT", "switch fluorescence ratio": 1}, {"sequence": "TCAACATGCT", "switch fluorescence ratio": 1}, {"sequence": "TCAACGATCC", "switch fluorescence ratio": 1.09}, {"sequence": "TCAACGCCAA", "switch fluorescence ratio": 2.8}, {"sequence": "TCAACGGG", "switch fluorescence ratio": 1.04}, {"sequence": "TCAACGGGGA", "switch fluorescence ratio": 1.03}, {"sequence": "TCAACTGGCT", "switch fluorescence ratio": 1.02}, {"sequence": "TCAAGAAATG", "switch fluorescence ratio": 1.51}, {"sequence": "TCAAGAGGAA", "switch fluorescence ratio": 0.957}, {"sequence": "TCAAGATGGG", "switch fluorescence ratio": 0.983}, {"sequence": "TCAAGCCATA", "switch fluorescence ratio": 0.947}, {"sequence": "TCAAGGAA", "switch fluorescence ratio": 0.95}, {"sequence": "TCAAGGTCGA", "switch fluorescence ratio": 1.04}, {"sequence": "TCAAGTATA", "switch fluorescence ratio": 1.03}, {"sequence": "TCAAGTGCGT", "switch fluorescence ratio": 0.97}, {"sequence": "TCAATAGTCG", "switch fluorescence ratio": 1.06}, {"sequence": "TCAATAGTG", "switch fluorescence ratio": 1.01}, {"sequence": "TCAATTGGCG", "switch fluorescence ratio": 1.03}, {"sequence": "TCAATTGGTA", "switch fluorescence ratio": 1.03}, {"sequence": "TCAATTTCTC", "switch fluorescence ratio": 1.02}, {"sequence": "TCACACCG", "switch fluorescence ratio": 1.03}, {"sequence": "TCACAGATAG", "switch fluorescence ratio": 0.981}]}]}
